The RNAGym collection of RNA variant scans (doi:10.7554/elife.90254)
Read counts are not given, so values of variants with three or more changes are uncertain.

B1: LINE1-full (parent)
chain: UACGUAGGUGGUUUUCCCCUGAUAGUGCUAAGGGGGCCUGGAAGUUUGGACUGGGCAGAGCUCAACACAGCGUGGCAAAGUGGCUGUGGCUAGACUGCCUCUCUGGAUUCCUCGUCACUCAGCAGGGCAUCUCUGAGAGAAAUGCC

Variants of: B1
Assay: self-cleavage, relative activity (ratio to wild type); higher = more cleavage; in vitro, sequencing; the parent is a self-cleaving ribozyme
In the case of A67G A69G A77C U112C C116U, the self-cleavage is reported as 0.
For A67G G70A C110G U112C A117G A142G, the self-cleavage was 0.
In the case of A65U U73A U104G, the self-cleavage is reported as 0.13.
A67C A69U A92G A140C showed a self-cleavage of 0.
Work on U73A U102C U112A A136U yielded a self-cleavage of 2.11.
C68U A78G A129G A136G showed a self-cleavage of 0.13.
U73A U100A U134A gave a self-cleavage of 1.13.
A69G G75U C95A gave a self-cleavage of 0.04.
G72U U96C G105A U134C showed a self-cleavage of 0.05.
For A69U G106A C123A A124G, the self-cleavage was 0.05.
Variant A65G U102C G114A has a self-cleavage of 0.02.
A65G U85A A136G A141G showed a self-cleavage of 0.17.
Work on C71G G80A U134G yielded a self-cleavage of 0.24.
Work on U73A U108C A129C yielded a self-cleavage of 1.6.
For A65G U130C U143A, the self-cleavage was 0.
For C68U U119A U130C, the self-cleavage was 0.16.
Variant A65U C101A A141G has a self-cleavage of 0.32.
A69U U96C U143C gave a self-cleavage of 0.06.
Variant A65U A69U U73C A79G U104A has a self-cleavage of 0.05.
For A67U G83A U85C A136G, the self-cleavage was 0.02.
Variant A67G A78G U134A has a self-cleavage of 0.
With A67U U132C A136G the self-cleavage was 0.44.
C68U U87C A124U A138G showed a self-cleavage of 0.01.
Work on A65G A78U U115A A136U A142G yielded a self-cleavage of 0.08.
U73A A136U U143C gave a self-cleavage of 1.86.
Work on A65G U81C A138G yielded a self-cleavage of 0.
Variant A67G A124G A141G has a self-cleavage of 0.31.
Variant U73A U132C U134C U143A has a self-cleavage of 1.46.
For A65G U73C U130A, the self-cleavage was 0.
C71U U96A A107U gave a self-cleavage of 0.03.
With A65G A69U A141G the self-cleavage was 0.02.
Work on A69G U87A A141G U143C yielded a self-cleavage of 0.02.
With A67G U119A U132C U134C the self-cleavage was 0.7.
For A69U A92C A136G, the self-cleavage was 0.
G72A A77G A140G showed a self-cleavage of 1.69.
With A65U U81C A117G the self-cleavage was 0.38.
Work on A67U U85C U112A yielded a self-cleavage of 0.08.
C68U U102A A140C gave a self-cleavage of 0.16.
Work on U73A A124G U132C yielded a self-cleavage of 0.59.
In the case of U73A U109A A141G A142C, the self-cleavage is reported as 1.02.
Work on A69U A77G U112C yielded a self-cleavage of 0.04.
In the case of A67G U132A G139A, the self-cleavage is reported as 0.5.
A69G U130C A142G gave a self-cleavage of 1.18.
A67G G72U C146U showed a self-cleavage of 0.49.
A65G U81A C110A gave a self-cleavage of 0.05.
Variant A65G U109A A136G has a self-cleavage of 0.08.
For A69G A78U U100G A140G, the self-cleavage was 0.
Work on A67G U130A A141G yielded a self-cleavage of 0.31.
A67G G75U U85G A92G A141G showed a self-cleavage of 0.
Work on A65G C101A G114A yielded a self-cleavage of 0.03.
U73C A78C U102C showed a self-cleavage of 0.92.
G72A U85C U91A A136G gave a self-cleavage of 0.21.
G72U U87A A129G U143C showed a self-cleavage of 0.11.
For A67U A94U G135A, the self-cleavage was 0.06.
Work on A69U A79G U112A A138G yielded a self-cleavage of 0.06.
Work on A69G G83U U132C yielded a self-cleavage of 0.18.
For A67G U112C U134A, the self-cleavage was 0.
U73A U96C A121G A136G gave a self-cleavage of 0.
Variant A67C C128G A142G has a self-cleavage of 0.07.
With A67G C76U U134A the self-cleavage was 0.27.
A67G U100A A142U U143C showed a self-cleavage of 0.45.
For A69G A77G U85A, the self-cleavage was 0.
U73A A117G A129G gave a self-cleavage of 1.38.
C66U C103A A121G A142U showed a self-cleavage of 0.03.
In the case of A69U A136U A138G, the self-cleavage is reported as 0.1.
A69G U81A U102C gave a self-cleavage of 0.74.
In the case of A69U U96A U102C, the self-cleavage is reported as 0.06.
A69G U87G A117G U119A showed a self-cleavage of 0.
With A67U U115C U134C the self-cleavage was 0.26.
With A65G A121U A138G the self-cleavage was 0.
A67U A77G U96A A142C gave a self-cleavage of 0.
Work on A69U A79U G89C U134G C146A yielded a self-cleavage of 0.02.
Work on A69U U115C U143C yielded a self-cleavage of 0.11.
G70A U96C A124G gave a self-cleavage of 0.03.
With A65G A67G A79G U143A the self-cleavage was 0.37.
With A67G G83A A107U the self-cleavage was 0.37.
For A67G C76U U85A, the self-cleavage was 0.04.
Variant C68U A77G A140G has a self-cleavage of 0.19.
For A69U U115C U134C, the self-cleavage was 0.
Variant A67U U109C A142G has a self-cleavage of 0.03.
A67U C101U U115A A124G gave a self-cleavage of 0.12.
In the case of C71U G86A U108C A129U, the self-cleavage is reported as 0.02.
C71U U102C A107U showed a self-cleavage of 1.17.
In the case of A69G U132C A142G, the self-cleavage is reported as 0.49.
For C71U U73C U81C A117U, the self-cleavage was 1.01.
For A65U G80U A124U, the self-cleavage was 0.27.
With U73C A77U A121U the self-cleavage was 1.73.
In the case of C71G C101A A124G, the self-cleavage is reported as 0.82.
In the case of A65G U85C G88A A136G, the self-cleavage is reported as 0.05.
In the case of G72C U100C A138G A140G, the self-cleavage is reported as 1.8.
Work on A69G C84A U130C yielded a self-cleavage of 0.
With A67U A121G A129G the self-cleavage was 0.1.
Work on A67G C71U A107G yielded a self-cleavage of 0.1.
A67G U115C A140G gave a self-cleavage of 0.48.
With A65G A92G C113U the self-cleavage was 0.02.
U73A U108C U132A gave a self-cleavage of 1.95.
For A69G U115C A138G, the self-cleavage was 0.
U73A U109A U134C showed a self-cleavage of 1.35.
A67U A77G U115C gave a self-cleavage of 0.
In the case of A67C A77U U102C U130C, the self-cleavage is reported as 0.
Variant A65U A77G U91C has a self-cleavage of 0.14.
A69G U112A U134G showed a self-cleavage of 0.51.
Variant U73A U87A A121G has a self-cleavage of 0.11.
In the case of A65U U73C A79G C84A, the self-cleavage is reported as 0.03.
A67G A129G A136G gave a self-cleavage of 0.49.
Variant A65U U81C A129U has a self-cleavage of 0.3.
For A69G U81A A142G C146G, the self-cleavage was 1.44.
A65G G80A U91C gave a self-cleavage of 0.02.
With C66U U73C U112C the self-cleavage was 0.11.
Work on A69G A124G A140G yielded a self-cleavage of 0.
For G72U A107G A140G, the self-cleavage was 0.3.
A67U A77C U108C A124G A129G A138U gave a self-cleavage of 0.
Work on C66A U85C A117G A124U yielded a self-cleavage of 0.
Work on A69G C84U A136G yielded a self-cleavage of 0.18.
Work on A69G G114A A142G yielded a self-cleavage of 0.3.
For C71U U91C A129G A141U A142G, the self-cleavage was 0.59.
Work on A65U A67C U85C yielded a self-cleavage of 0.09.
A67G C68U U73A A77G U81C showed a self-cleavage of 0.14.
In the case of A65G A121G A136U, the self-cleavage is reported as 0.
C66U A92G C111U showed a self-cleavage of 0.
With C66A A77U A79U the self-cleavage was 0.02.
In the case of A69G U73C U96A, the self-cleavage is reported as 0.04.
Variant A67G A140G U143C has a self-cleavage of 0.44.
A67G C111U U134C gave a self-cleavage of 0.43.
Variant A65U C123U A129G has a self-cleavage of 0.12.
In the case of A65G A69G A124G C145G, the self-cleavage is reported as 0.66.
Work on A65G C71U U81A C103U A107U A117U A124U U132C yielded a self-cleavage of 0.01.
For U73A C120U C123U, the self-cleavage was 1.48.
Work on A65G A78U G122U yielded a self-cleavage of 0.03.
With A65G A67G U132C A136G A141G the self-cleavage was 0.
A69G C84G U108C A124U A140G showed a self-cleavage of 0.
For A65G U87A A142G, the self-cleavage was 0.05.
Variant A65G A92G U115A A117U U119C has a self-cleavage of 0.
A67C U112C A121U gave a self-cleavage of 0.03.
U73A U81A A138G gave a self-cleavage of 1.87.
A69U U73C U119C showed a self-cleavage of 0.22.
U73A G80A A129G A140G gave a self-cleavage of 2.39.
For U73A A78G U119C A121U, the self-cleavage was 0.27.
Variant A65U A92G U115C has a self-cleavage of 0.13.
Work on C71U U100C U108C A136G yielded a self-cleavage of 1.57.
In the case of U73A G135A A142G, the self-cleavage is reported as 1.79.
Work on A69U U115C A136G yielded a self-cleavage of 0.04.
Variant A65U U73C G89A has a self-cleavage of 0.
With A69G U85A A92G the self-cleavage was 0.
U73A U112A C113U gave a self-cleavage of 1.92.
With C71U A77U A94U the self-cleavage was 0.16.
Work on A69G A92U U134A A142G yielded a self-cleavage of 0.14.
For A65G U102C U109C A142G, the self-cleavage was 0.5.
A65G U112C C113A showed a self-cleavage of 0.04.
For A67G U85C U119C A140G, the self-cleavage was 0.
In the case of A69U C116U C145U, the self-cleavage is reported as 0.05.
Variant A67G A77G U100A A140G has a self-cleavage of 0.46.
A65G A69G C101U C146U gave a self-cleavage of 0.
Variant U73A A77G C101U A141C has a self-cleavage of 2.85.
In the case of G72A U73C A78G U87A A142G U143C, the self-cleavage is reported as 0.1.
A65G A78G A138U A140U showed a self-cleavage of 0.02.
Work on A69G A79G U143A yielded a self-cleavage of 1.12.
For A65U U73A A77U U115C A117U C128U, the self-cleavage was 0.15.
A67U A129G U143C gave a self-cleavage of 0.22.
A67G A77G U119A A138G gave a self-cleavage of 0.95.
Work on A69U A129G A136G yielded a self-cleavage of 0.09.
Work on A69G A92G A138G yielded a self-cleavage of 0.
For A67U A79G U102C U119A, the self-cleavage was 0.12.
Variant A65G A77G U109A A117U has a self-cleavage of 0.06.
In the case of U73A C113U A124U A129G, the self-cleavage is reported as 0.77.
In the case of A65G U85A A129U, the self-cleavage is reported as 0.03.
In the case of U73A U115C U130C A140U, the self-cleavage is reported as 1.17.
